# Laboratory results taken from PubChem BioAssay AID504332 (National Center for Advancing Translational Sciences (NCATS), 2011).
# Hit rate of the full screen: of about 350,000 compounds, about 31,000 (8.9%) were called active. The inconclusive results got no clear call from the source; some entries with a clear call stand among them for comparison. Calls follow the shape of the dose curve; as a rule, active = well fitted inhibition curve with a large enough effect; inconclusive = small, poorly fitted or top-dose-only effect; inactive = no such curve, though single readings can be large or run the other way. Potencies beside an inconclusive call are fits to weak or partial responses and may not hold up.
# Biological target: Histone-lysine N-methyltransferase EHMT2 (Homo sapiens) (UniProt Q96KQ7)
# Test: qHTS Assay for Inhibitors of Histone Lysine Methyltransferase G9a; also: nearly all actives have a fitted effect of over 75% in size
# Settings: G9a H3K9 monomethylation, AlphaScreen, 2 h; activity, negative = inhibition: at 59 µM (top of the series) unless noted
# Method in brief: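 Chemiluminescent proximity detection of H3K9 monomethylation, read after 10 min bead incubation in the dark. Reaction: 20 nM G9a, 500 nM biotin-H3K9 peptide, 20 uM SAM cofactor, 2 h, room temperature, following 15 min enzyme-compound preincubation.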
# % is scaled to controls: 0 for no effect and ±100 for the full control effect; potency is read from the fitted curve at half-maximal effect; tags tell the direction and shape of the fitted curve.
# Sequence of UniProt Q96KQ7 (Q96KQ7 whole entry, looked up): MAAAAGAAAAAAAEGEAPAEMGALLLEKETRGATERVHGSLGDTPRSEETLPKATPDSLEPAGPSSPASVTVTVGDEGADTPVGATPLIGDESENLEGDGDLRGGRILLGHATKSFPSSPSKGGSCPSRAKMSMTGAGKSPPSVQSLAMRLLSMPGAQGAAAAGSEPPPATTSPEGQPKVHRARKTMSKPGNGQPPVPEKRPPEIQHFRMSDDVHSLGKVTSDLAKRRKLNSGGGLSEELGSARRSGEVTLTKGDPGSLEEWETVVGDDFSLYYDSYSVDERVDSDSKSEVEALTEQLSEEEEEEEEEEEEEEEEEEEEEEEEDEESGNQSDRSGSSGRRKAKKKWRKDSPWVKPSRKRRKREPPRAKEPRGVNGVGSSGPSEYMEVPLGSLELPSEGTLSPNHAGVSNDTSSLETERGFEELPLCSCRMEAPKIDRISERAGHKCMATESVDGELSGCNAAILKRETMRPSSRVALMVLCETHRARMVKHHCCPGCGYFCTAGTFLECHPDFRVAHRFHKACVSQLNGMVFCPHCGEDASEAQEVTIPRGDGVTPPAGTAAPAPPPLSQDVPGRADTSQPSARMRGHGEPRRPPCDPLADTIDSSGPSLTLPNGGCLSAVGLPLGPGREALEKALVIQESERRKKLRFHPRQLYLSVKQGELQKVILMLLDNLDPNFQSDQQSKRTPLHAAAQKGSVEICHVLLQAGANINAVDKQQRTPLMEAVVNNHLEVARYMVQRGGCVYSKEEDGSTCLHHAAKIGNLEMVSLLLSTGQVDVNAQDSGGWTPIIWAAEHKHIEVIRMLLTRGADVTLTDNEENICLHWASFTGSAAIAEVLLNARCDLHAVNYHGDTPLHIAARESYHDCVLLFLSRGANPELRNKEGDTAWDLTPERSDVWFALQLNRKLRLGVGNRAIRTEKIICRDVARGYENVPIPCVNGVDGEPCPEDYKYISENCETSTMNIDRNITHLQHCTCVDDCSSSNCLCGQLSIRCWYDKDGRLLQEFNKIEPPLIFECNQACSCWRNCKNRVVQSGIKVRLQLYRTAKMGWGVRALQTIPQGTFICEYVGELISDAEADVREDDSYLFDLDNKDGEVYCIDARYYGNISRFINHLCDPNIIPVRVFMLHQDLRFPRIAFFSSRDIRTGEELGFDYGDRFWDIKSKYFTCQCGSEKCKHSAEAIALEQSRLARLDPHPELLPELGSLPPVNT
Compound,Potency,"activity, negative = inhibition"
Cc1c(C)n(Cc2ccc(Cl)cc2)c2ccc(C(=O)NCCc3ccc(S(N)(=O)=O)cc3)cc12,"inconclusive: 0.501 µM [inhibitor, partial curve, poor fit]",–
Clc1ccc(CSc2nc3ccncc3[nH]2)cc1,"inconclusive: 89.1 µM [inhibitor, single point]",–
COc1cc(CNCC(C)C)cc(Br)c1OCC(=O)Nc1ccccc1,"inconclusive: 39.8 µM [inhibitor, single point]",–
Cn1cc(CN2CCCC(C(=O)Nc3ccc(-c4cccc(F)c4)cc3)C2)cn1 (centres undefined),–,inactive: -5.47% [at 0.0925 µM]
CC(=O)N(/N=C1/C(=O)Nc2ccccc21)c1ccccc1,active: 14.1 µM,–
CCCC(=O)Nc1ccc2c(c1)nc(CCNC(=O)c1ccco1)n2C,"inconclusive: 50.1 µM [inhibitor, partial curve, poor fit]",–
Cc1ccc(-c2n[nH]c(=S)n2/N=C/C=C/c2ccccc2[N+](=O)[O-])cc1,active: 0.282 µM,–
CC(=O)Nc1ccc(NC(=O)C(C)OC(=O)c2ccc3[nH]c(C)c(C)c3c2)cc1 (centres undefined),active: 50.1 µM,–
CCN(CC)S(=O)(=O)c1ccc2c(c1)nc(CCC(=O)O)n2C,active: 25.1 µM,–
COc1ccc(S(=O)(=O)N(CCc2ccccc2)CC(=O)O)cc1C,"inconclusive: 79.4 µM [inhibitor, single point]",–
COc1ccc(Nc2ccc(N3C(=O)CC(C)C3=O)cc2[N+](=O)[O-])cn1 (centres undefined),"inconclusive: 50.1 µM [inhibitor, partial curve, poor fit]",–
CCc1ccc2nc(N(CCN(C)C)C(=O)c3ccc4ccccc4c3)sc2c1,active: 79.4 µM,–
O=S(=O)(c1ccccc1)c1nc(-c2ccccc2)oc1NCc1cccnc1,"inconclusive: 25.1 µM [inhibitor, single point]",–
O=C(NC(=S)Nc1ccc2c(c1)OCO2)c1ccc(Cl)cc1,"inconclusive: 3.98 µM [inhibitor, full curve]",–
CC(C(=O)Nc1ccc(N(C)C)cc1)N1C(=O)c2ccccc2S1(=O)=O (centres undefined),active: 14.1 µM,–
COc1ccc(S(=O)(=O)c2ccccc2)cc1NS(=O)(=O)c1cccc(C(=O)O)c1,–,inactive: 14.9% [at 2.33 µM]
O=C(NC(=S)Nc1cccc2[nH]ncc12)c1ccccc1,"inconclusive: 70.8 µM [inhibitor, single point]",–
CCOCCCNC(=O)Cn1cc2c(n1)CCCC2,"inconclusive: 89.1 µM [inhibitor, single point]",–
COC(=O)C(NC(=O)c1ccccc1C(=O)O)c1ccc2ccccc2c1 (centres undefined),active: 70.8 µM,–
